Out of some 360,000 compounds screened, about 7,500 (2.1%) were called active. The inconclusive results got no clear call from the source; some entries with a clear call stand among them for comparison. Calls come from the whole dose curve; as a rule, active = well fitted cell-killing curve with a large enough effect; inconclusive = small, poorly fitted or top-dose-only effect, or effect the other way, or another doubt; inactive = no such curve, though single readings can be large or run the other way. No potency is given beside an inconclusive call; the fits are too rough.
test: qHTS for induction of synthetic lethality in tumor cells producing 2HG: qHTS for the HT-1080-IDH1KD cell line; settings: HT-1080 IDH1 knockdown viability, ATP luminescence, 48 h; series mostly up to 46.1 µM
Summary of the method: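 Knockdown cells (IDH1KD HT-1080) received compounds 2 h after plating at 750 cells/well and were kept 48 h at 37 °C in 5% FBS RPMI. A CellTiter-Glo luminescence read gave % activity for curve fitting.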
Potency is the fitted concentration of half-maximal effect; tags give direction and shape of the fitted curve.

Compound	Potency
Cc1cccc(N=N/C(=C\O)C(=O)c2ccc(Br)cc2)c1	inconclusive [cytotoxic, partial curve, poor fit]
O=C(NCCN1CCC(n2c(=O)[nH]c3ccccc32)CC1)c1ccc(Cl)c(Cl)c1	inconclusive [cytotoxic, single point]
COc1ccc(C(CNc2ccc(S(=O)(=O)N3CCCC3)cc2[N+](=O)[O-])N2CCCC2)cc1 (stereo not drawn)	inconclusive [cytotoxic, single point]
CC(/C=C/c1ccccc1)=N/NC(=O)c1cc([N+](=O)[O-])cc([N+](=O)[O-])c1	inactive
CC(=O)c1ccc2c(c1)CC1(C2)Cc2cc3c(cc2C1)C(=O)CC3 (stereo not drawn)	inconclusive [cytotoxic, partial curve]
Cc1cccc(N2CCN(C(=O)Cc3ccccc3[N+](=O)[O-])CC2)c1C	inactive
COc1ccccc1NC(=O)Nc1nnc(CC(=O)Nc2ccccc2C)s1	inactive
O=C(COC(=O)[C@@H]1CC(O)CN1S(=O)(=O)c1ccc2c(c1)OCCO2)Nc1cc(F)ccc1F (stereo partly drawn)	inactive
Cc1cc(C)c2nc3sc(C(=O)N4CCOCC4)c(N)c3cc2c1	active: 0.0517 µM
CCN(CC(=O)NCc1cccs1)C(=O)c1ccc(-c2ccc(F)cc2)o1	inconclusive [cytotoxic, single point]
O=C(Nc1nnc(/N=C/c2ccco2)s1)c1ccc(F)cc1	inactive
Cc1ccccc1CNC(=O)C(=O)NCC1CCCN1S(=O)(=O)c1cccs1 (stereo not drawn)	inactive
O=c1[nH]c2ccc(S(=O)(=O)Nc3ccc(Cl)cc3)cc2o1	inconclusive [cytotoxic, single point]
CSc1ccc(CN2C(=O)C(F)(F)Oc3c(C(C)=O)cccc32)cc1	inactive
O=C1CC(=O)N(CCNc2ncc(C(F)(F)F)cc2Cl)C(=O)N1	inactive
COC(=O)c1ccc(-c2ncc[nH]2)cc1	inactive
CCN(CC)CCCNc1nc(-c2ccccc2)nc2ccccc12	inconclusive [cytotoxic, single point]
NCCc1c(-c2ccccc2)n(-c2ccccc2)c2ccccc12	active: 20.6 µM
COc1cccc(CCN2CCC(CNS(=O)(=O)c3cc(-c4cc(C)no4)ccc3OC)CC2)c1	inconclusive [cytotoxic, single point]
CC[n+]1c(/C=C2\Sc3ccccc3N2C)ccc2cccc(C)c21	active: 10.3 µM
CCCN(CC(=O)NC(=O)NCc1ccccc1)CC(=O)Nc1ccc(F)c(F)c1F	inconclusive [cytotoxic, single point]
O=c1oc2ccccc2cc1-c1nc(-c2ccccc2)no1	inactive
CCN1C(=O)[C@@H]2[C@@H](c3ccc(-c4ccc(C(C)=O)cc4)c(OC)c3)N3CCCC[C@@]3(C(=O)OC)[C@@H]2C1=O	inactive
COc1cc(CNCc2cccs2)ccc1OCc1cccs1	inconclusive [cytotoxic, single point]

Compound	Potency
Nc1ncn([C@@H]2O[C@H](CO)[C@@H](O)[C@H]2O)c(=O)n1	active: 1.84 µM
CC(C)(C)c1cc(CCC(=O)NNC(=O)c2ccco2)cc(C(C)(C)C)c1O	inactive
O=C1NC(Cc2ccccc2)c2nc3ccc(F)cc3c(=O)n2-c2cc3ccccc3cc21 (stereo not drawn)	active: 5.8 µM
O=C1c2ccccc2C(=O)N1CN(C(=O)c1ccccc1)c1ccc(O)cc1	inactive
CCCNC(=O)C1(C)CCN(Cc2noc(-c3ccccc3OC)n2)C1 (stereo not drawn)	inactive
Cc1noc(C)c1NC(=O)N(C)C[C@H]1OCCCC[C@@H](C)Oc2ccc(NC(=O)Nc3ccc(F)cc3)cc2C(=O)N([C@@H](C)CO)C[C@H]1C	inactive
O=c1[nH]n(Cc2ccccc2)c(=O)c2ccccc12	inconclusive [cytotoxic, single point]
CC(=O)NC(c1cccs1)c1cc([N+](=O)[O-])c2cccnc2c1O (stereo not drawn)	active: 10.3 µM
O=C(Nc1ccc(S(=O)(=O)N2CCOCC2)cc1)c1ccc(CN2CCc3ccccc3C2)cc1	active: 20.6 µM
Cc1ccc(C(=O)Nc2cccc(C(F)(F)F)c2)cc1NC(=O)c1ccno1	inactive
CCC(=O)Oc1ccc(C(=O)Nc2ccc3c(c2)OCO3)cc1	inconclusive [cytotoxic, single point]
CCOC(=O)c1c(-c2ccc(C)o2)csc1NC(=S)NC(=O)N(C)C	active: 12.6 µM
COc1ccc2cc(CCNC(=O)c3ccc4c(c3)OCO4)c(=O)[nH]c2c1	inactive
Cc1ccc(S(=O)(=O)Nc2ccc(Cl)cc2C(=O)c2ccccc2)cc1	inactive
CC(=O)N1CCN(c2ccccc2NC(=O)COc2cc(C)ccc2C(C)C)CC1	inconclusive [cytotoxic, single point]
Cc1cc(C)c(N=Cc2c(O)n(-c3nccs3)c(=O)c3ccccc23)c(C)c1	inactive
CCOc1ccc(NC(=O)Cn2nnc(C(=O)NCc3ccc(OC)cc3)c2N)cc1	inconclusive [cytotoxic, partial curve]
Cc1ccc(C23CC4CC(CC(CN)(C4)C2)C3)cc1	inconclusive [cytotoxic, single point]
COc1cccc(-c2cnc3c(NC=O)cc(-c4cc(C)c(O)c(C)c4)cn23)c1	inconclusive [cytotoxic, full curve]
COC(=O)c1cccc(NC(=S)N2CCCCC2)c1	inconclusive [rising, single point]
O=C(Nc1cccc(F)c1)NC1CCCc2ccccc21 (stereo not drawn)	inconclusive [cytotoxic, single point]
O=C(/C=C/c1cccnc1)c1ccc(O)cc1	inconclusive [cytotoxic, single point]
N#Cc1ccc(C(=O)NC2CCCCCCC2)cc1	inactive
Cc1ccc(NS(=O)(=O)c2ccc(NC(=O)CN(c3cc([N+](=O)[O-])ccc3C)S(C)(=O)=O)cc2)c(C)c1	inconclusive [cytotoxic, single point]

Source: PubChem BioAssay AID686971 (National Center for Advancing Translational Sciences (NCATS), 2013)
